Some of the results follow.
Columns and labels:
Assay in all cases: glycan array binding signal (z-score within array); higher = stronger binding
Settings in all cases: glycan notation: IUPAC condensed, linker removed
[1] = target: Fuc(a1-2)Gal
Procedure, shortened: (§1)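 The binding signal is a Z-score computed within each array. Data were drawn from 3228 arrays in the Consortium for Functional Glycomics database, restricted to those with a known protein sequence. Scores were averaged over arrays of the same protein sequence at different concentrations or buffers, and over linkers, and negative values can be taken as non-binding.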

[2] = target: Fuc(a1-2)Gal(b1-3)GalNAc
Procedure, shortened: as §1

[3] = target: Fuc(a1-2)Gal(b1-3)GalNAc(b1-3)Gal
Procedure, shortened: as §1

[4] = target: Fuc(a1-2)Gal(b1-3)GalNAc(b1-3)Gal(a1-4)Gal(b1-4)Glc
Procedure, shortened: as §1

[5] = target: Fuc(a1-2)Gal(b1-3)GalNAc(b1-4)[Neu5Ac(a2-3)]Gal(b1-4)Glc
Procedure, shortened: as §1

[6] = target: Fuc(a1-2)Gal(b1-3)GlcNAc
Procedure, shortened: as §1

[7] = target: Fuc(a1-2)Gal(b1-3)GlcNAc(b1-3)Gal(b1-4)Glc
Procedure, shortened: as §1

[8] = target: Fuc(a1-2)Gal(b1-3)[Fuc(a1-4)]GlcNAc
Procedure, shortened: as §1

[9] = target: Fuc(a1-2)Gal(b1-4)Glc
Procedure, shortened: as §1

[10] = target: Fuc(a1-2)Gal(b1-4)GlcNAc
Procedure, shortened: as §1

[11] = target: Fuc(a1-2)Gal(b1-4)GlcNAc(b1-3)Gal(b1-4)GlcNAc
Procedure, shortened: as §1

[12] = target: Fuc(a1-2)Gal(b1-4)GlcNAc(b1-3)Gal(b1-4)GlcNAc(b1-3)Gal(b1-4)GlcNAc
Procedure, shortened: as §1

[13] = target: Fuc(a1-2)Gal(b1-4)[Fuc(a1-3)]GlcNAc
Procedure, shortened: as §1

[14] = target: Fuc(a1-2)Gal(b1-4)[Fuc(a1-3)]GlcNAc(b1-3)Gal(b1-4)[Fuc(a1-3)]GlcNAc
Procedure, shortened: as §1

[15] = target: Fuc(a1-2)Gal(b1-4)[Fuc(a1-3)]GlcNAc(b1-3)Gal(b1-4)[Fuc(a1-3)]GlcNAc(b1-3)Gal(b1-4)[Fuc(a1-3)]GlcNAc
Procedure, shortened: as §1

[16] = target: Fuc(a1-2)GlcNAc
Procedure, shortened: as §1

[17] = target: Fuc(a1-2)[Gal(a1-3)]Gal
Procedure, shortened: as §1

[18] = target: Fuc(a1-2)[Gal(a1-3)]Gal(b1-3)GlcNAc
Procedure, shortened: as §1

[19] = target: Fuc(a1-2)[Gal(a1-3)]Gal(b1-4)Glc
Procedure, shortened: as §1

[20] = target: Fuc(a1-2)[Gal(a1-3)]Gal(b1-4)GlcNAc
Procedure, shortened: as §1

[21] = target: Fuc(a1-2)[Gal(a1-3)]Gal(b1-4)[Fuc(a1-3)]GlcNAc
Procedure, shortened: as §1

[22] = target: Fuc(a1-2)[Gal(a1-4)]Gal(b1-4)GlcNAc
Procedure, shortened: as §1

[23] = target: Fuc(a1-2)[GalNAc(a1-3)]Gal
Procedure, shortened: as §1

[24] = target: Fuc(a1-2)[GalNAc(a1-3)]Gal(b1-3)GlcNAc
Procedure, shortened: as §1

[25] = target: Fuc(a1-2)[GalNAc(a1-3)]Gal(b1-4)Glc
Procedure, shortened: as §1

[26] = target: Fuc(a1-2)[GalNAc(a1-3)]Gal(b1-4)GlcNAc
Procedure, shortened: as §1

[27] = target: Fuc(a1-2)[GalNAc(a1-3)]Gal(b1-4)[Fuc(a1-3)]GlcNAc
Procedure, shortened: as §1

[28] = target: Fuc(a1-2)[GalNAc(a1-4)]Gal(b1-4)GlcNAc
Procedure, shortened: as §1

[29] = target: Fuc(a1-2)[GalNAc(b1-3)]Gal
Procedure, shortened: as §1

[30] = target: Fuc(a1-3)GlcNAc
Procedure, shortened: as §1

[31] = target: Fuc(a1-3)[Gal(b1-4)]GlcNAc
Procedure, shortened: as §1

[32] = target: Fuc(a1-3)[Gal(b1-4)]GlcNAc(b1-4)Gal(b1-4)[Fuc(a1-3)]GlcNAc
Procedure, shortened: as §1

[33] = target: Fuc(a1-3)[Gal(b1-4)]GlcNAc(b1-4)Gal(b1-4)[Fuc(a1-3)]GlcNAc(b1-4)Gal(b1-4)[Fuc(a1-3)]GlcNAc
Procedure, shortened: as §1

[34] = target: Fuc(a1-3)[Gal3S(b1-4)]GlcNAc
Procedure, shortened: as §1

[35] = target: Fuc(a1-3)[GalNAc(b1-4)]GlcNAc
Procedure, shortened: as §1

[36] = target: Fuc(a1-4)GlcNAc
Procedure, shortened: as §1

[37] = target: Fuc(b1-3)GlcNAc
Procedure, shortened: as §1

[38] = target: Gal(a1-2)Gal
Procedure, shortened: as §1

[39] = target: Gal(a1-3)Gal
Procedure, shortened: as §1

[40] = target: Gal(a1-3)Gal(b1-3)GlcNAc
Procedure, shortened: as §1

[41] = target: Gal(a1-3)Gal(b1-4)Glc
Procedure, shortened: as §1

[42] = target: Gal(a1-3)Gal(b1-4)GlcNAc
Procedure, shortened: as §1

[43] = target: Gal(a1-3)Gal(b1-4)[Fuc(a1-3)]GlcNAc
Procedure, shortened: as §1

[44] = target: Gal(a1-3)GalNAc
Procedure, shortened: as §1

[45] = target: Gal(a1-3)[Gal(a1-4)]Gal(b1-4)GlcNAc
Procedure, shortened: as §1

[46] = target: Gal(a1-4)Gal(b1-4)Glc
Procedure, shortened: as §1

[47] = target: Gal(a1-4)Gal(b1-4)GlcNAc
Procedure, shortened: as §1

[48] = target: Gal(a1-4)GlcNAc
Procedure, shortened: as §1

[49] = target: Gal(a1-6)Glc
Procedure, shortened: as §1

[50] = target: Gal(b1-2)Gal
Procedure, shortened: as §1

[51] = target: Gal(b1-3)Gal
Procedure, shortened: as §1

[52] = target: Gal(b1-3)GalNAc
Procedure, shortened: as §1

[53] = target: Gal(b1-3)GalNAc(b1-3)Gal(a1-4)Gal(b1-4)Glc
Procedure, shortened: as §1

[54] = target: Gal(b1-3)GalNAc(b1-4)Gal(b1-4)Glc
Procedure, shortened: as §1

[55] = target: Gal(b1-3)GalNAc(b1-4)[Neu5Ac(a2-3)]Gal(b1-4)Glc
Procedure, shortened: as §1

[56] = target: Gal(b1-3)GlcNAc
Procedure, shortened: as §1

[57] = target: Gal(b1-3)GlcNAc(b1-3)Gal(b1-4)Glc
Procedure, shortened: as §1

[58] = target: Gal(b1-3)GlcNAc(b1-3)Gal(b1-4)GlcNAc
Procedure, shortened: as §1

[59] = target: Gal(b1-3)[Fuc(a1-4)]GlcNAc
Procedure, shortened: as §1

[60] = target: Gal(b1-3)[Fuc(a1-4)]GlcNAc(b1-3)Gal(b1-4)GlcNAc
Procedure, shortened: as §1

B1: RS-IIL (Ralstonia solanacearum) (protein)
chain: AQQGVFTLPANTSFGVTAFANAANTQTIQVLVDNVVKATFTGSGTSDKLLGSQVLNSGSGAIKIQVSVNGKPSDLVSNQTILANKLNFAMVGSEDGTDNDYNDGIAVLNWPLG
With B1 the “glycan array binding signal (z-score)” value [1] was 1.07, the “glycan array binding signal (z-score)” value [2] was 0.268 and the “glycan array binding signal (z-score)” value [3] was -0.324. The “glycan array binding signal (z-score)” value [4] was 0.116, the “glycan array binding signal (z-score)” value [5] was 0.021 and the “glycan array binding signal (z-score)” value [6] was 0.926. The “glycan array binding signal (z-score)” value [7] was 0.723, the “glycan array binding signal (z-score)” value [8] was 0.862 and the “glycan array binding signal (z-score)” value [9] was 1.23. The “glycan array binding signal (z-score)” value [10] was 1.01, the “glycan array binding signal (z-score)” value [11] was 1.12 and the “glycan array binding signal (z-score)” value [12] was 1.31. The “glycan array binding signal (z-score)” value [13] was 0.407, the “glycan array binding signal (z-score)” value [14] was 0.782 and the “glycan array binding signal (z-score)” value [15] was 1. For the same binder, the “glycan array binding signal (z-score)” value [16] was 0.445, the “glycan array binding signal (z-score)” value [17] was -0.241 and the “glycan array binding signal (z-score)” value [18] was -0.372. The “glycan array binding signal (z-score)” value [19] was -0.316, the “glycan array binding signal (z-score)” value [20] was -0.318 and the “glycan array binding signal (z-score)” value [21] was -0.301. For the same binder, the “glycan array binding signal (z-score)” value [22] was -0.123, the “glycan array binding signal (z-score)” value [23] was -0.265 and the “glycan array binding signal (z-score)” value [24] was -0.366. The “glycan array binding signal (z-score)” value [25] was -0.306, the “glycan array binding signal (z-score)” value [26] was -0.337 and the “glycan array binding signal (z-score)” value [27] was 0.302. The “glycan array binding signal (z-score)” value [28] was -0.142, the “glycan array binding signal (z-score)” value [29] was -0.364 and the “glycan array binding signal (z-score)” value [30] was -0.121. The “glycan array binding signal (z-score)” value [31] was -0.198, the “glycan array binding signal (z-score)” value [32] was -0.05 and the “glycan array binding signal (z-score)” value [33] was 0.147. For the same binder, the “glycan array binding signal (z-score)” value [34] was -0.256, the “glycan array binding signal (z-score)” value [35] was -0.27 and the “glycan array binding signal (z-score)” value [36] was 0.191. The “glycan array binding signal (z-score)” value [37] was -0.275, the “glycan array binding signal (z-score)” value [38] was -0.385 and the “glycan array binding signal (z-score)” value [39] was -0.378. For the same binder, the “glycan array binding signal (z-score)” value [40] was -0.387, the “glycan array binding signal (z-score)” value [41] was -0.386 and the “glycan array binding signal (z-score)” value [42] was -0.388. The “glycan array binding signal (z-score)” value [43] was -0.274, the “glycan array binding signal (z-score)” value [44] was -0.386 and the “glycan array binding signal (z-score)” value [45] was -0.379. The “glycan array binding signal (z-score)” value [46] was -0.387, the “glycan array binding signal (z-score)” value [47] was -0.384 and the “glycan array binding signal (z-score)” value [48] was -0.387. For the same binder, the “glycan array binding signal (z-score)” value [49] was -0.387, the “glycan array binding signal (z-score)” value [50] was -0.387 and the “glycan array binding signal (z-score)” value [51] was -0.386. For the same binder, the “glycan array binding signal (z-score)” value [52] was -0.388, the “glycan array binding signal (z-score)” value [53] was -0.384 and the “glycan array binding signal (z-score)” value [54] was -0.369. For the same binder, the “glycan array binding signal (z-score)” value [55] was -0.372, the “glycan array binding signal (z-score)” value [56] was -0.389 and the “glycan array binding signal (z-score)” value [57] was -0.332. For the same binder, the “glycan array binding signal (z-score)” value [58] was -0.381, the “glycan array binding signal (z-score)” value [59] was 0.684 and the “glycan array binding signal (z-score)” value [60] was -0.042.
